# Laboratory results: the supplement of paper PMC11417369
# The list shows a part of the results.
# System: PfHDP1 homeodomain (GST-tagged)
# Experiment: gcPBM binding intensity (ln(normalized median fluorescence intensity)); higher = stronger DNA binding
# Summary of the method: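 For binding intensity, the highest Masliner-normalised natural-log median intensity across replicate spots of either probe orientation was taken. Protein bound to the array was stained with Alexa488 anti-GST antibody and scanned at 488 nm. The protein, GST-tagged P. falciparum DNA-binding domains from E. coli at about 25 μg on average, had been applied for 1 h to an Agilent 4 × 180k array of primer-extended double-stranded 36-bp intergenic genomic probes and negative controls.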
row,Sequence,gcPBM binding intensity (ln)
1,TCTTTTTTTATTTTATTTTTTTTTTTTAAATAATTC [TGCATGCA_negctrl_site372],6.3
2,ATTATAATATTGTTATGTACATAAAAATTATTGAAT [XGTACX_site4476],6.79
3,AAAACATAAATACATACACACATAATATATATTAAT [CACACA_site109],6.77
4,AACATGAAAGATAGCAAAAAAAAAAAAAAAAAAAAA [TGCATGCA_negctrl_site607],5.94
5,AAAAAATAATAAATCACACATATTATATATATATAT [CACACA_site5838],8.94
6,AAATTATAATATAATACACACATAAAAAAAAAATCA [CACACA_site3634],6.69
7,TATATATATATATATTGTACACATATATATTTACGA [XGTACX_site4791],9.08
8,ATAATAAAAATAAGAGAATAAAAATGCAATTTAATG [CACACA_negctrl_site878],7.02
9,TCCTTTATTTTTAAATGTACAAATATTATCTCCTCA [XGTACX_site5856],6.5
10,TTTTTTTATTATCATGCACACATTTTTTTTTTTTAC [CACACA_site2253],8.72
11,ACTTGACACGGACACACACACATATATAAAAAAAAA [CACACA_site4576],6.89
12,TGATTCTTTTGTATCACACACACTTAGTTTAATTTT [CACACA_site2404],6.87
13,ATTGATCGGATAAAATGTACAAATATATATATATAT [XGTACX_site7345],9.16
14,ATTTATAATGTGTATACACACATATATAGATTTGCT [CACACA_site6440],6.82
15,AACTCACATAAATTCACACAAATGTATATTCATATA [CACACA_site4554],6.35
16,TATATATATTTATATGCATGTAATATATTTGTATTG [TGCATGCA_site323],6.58
17,TGTTCTCTTCTTTTTTATTTTCCAAAGTAATAAGTT [TGCATGCA_negctrl_site424],6.48
18,TTAATTATAATTATATGTACGAACTTTTTTTTTTTT [XGTACX_site6586],6.22
19,CATAAATCAGCCATAACACACATACATAAATACATA [CACACA_site4380],6.6

row,Sequence,gcPBM binding intensity (ln)
1,AGAAAAAAGAGGGATACACACAAACATATATATATA [CACACA_site5269],8.78
2,AATTATTTTATGAAAAGTACACATTGTTTTAATTCT [XGTACX_site4506],6.12
3,TAAATAAGTATTACTAGTACACACAAGTTGTTAATC [XGTACX_site7074],6.5
4,ACAGTATCTGGTAGCTGTACGAGTCGTAGAGTGTAG [XGTACX_site2011],6.69
5,TTCATTAATGTGTAATGTACTTGTAATATGGGATTA [XGTACX_site3903],6.42
6,AATATATAAATAAATATATAAATAAATAATTGAAGC [CACACA_negctrl_site348],6.52
7,AAAATATAAAGTATTTGTACATAATATATTTTTAAA [XGTACX_site3494],6.07
8,CATTTTTTAATAATAGCACACAGGACATACAAAACA [CACACA_site1245],7.22
9,TTATATATTTTATTATTTATAATCTTTTTTTTATTT [CACACA_negctrl_site112],6.1
10,TTATATTTCAATTAAACATGCATTTTTGTGTAGCAC [TGCATGCA_site214],6.56
11,TCATATAGATTATACACACACATATATAGATATATA [CACACA_site6587],6.75
12,AAATTGATTATAAATTGTACAAGAACATACAACCTT [XGTACX_site5986],6.23
13,CAAAAGCGATACGGCACACATTTCCTGTTTAAATGA [CACACA_site5519],6.25
14,TTAATTTTTAGAAGAACACACACATATATATTATGA [CACACA_site7969],6.33
15,TTTTGCCTTTCTACTTGTACTTAAAATATTATAATT [XGTACX_site5483],7.22
16,TGGTATATAAAACACACACACATATGTATTTATATA [CACACA_site4665],6.62
17,TTTATTTATTATTAAAGTACTAAATCATATAATTAT [XGTACX_site5727],6.04
18,AAATTAAAAAAATAATGTACATGTATTTATTATGTA [XGTACX_site2419],6.63
19,TTTCTGTGTTTTGGTTGTACACACGCTACATTATAT [XGTACX_site5669],7.71

row,Sequence,gcPBM binding intensity (ln)
1,TTGTTTTTTTTTTCTATAAGCATAAAAATGATATAA [XGTACX_negctrl_site356],6.05
2,AGTATTCACTTAATATGTACATATTTATTATAAGAG [XGTACX_site3434],6.85
3,GCTTTTAAAATAATTGGTACACATGTATAAATTCAA [XGTACX_site2327],6.55
4,TAAAACAATACTTTGTGCTTCTCTGGTTTTTTTTTT [GTGCAC_negctrl_site284],6.04
5,TTTTATTTCTTTGCACCATTTTAAATACAAACAAAT [CACACA_negctrl_site1553],11
6,TTCAAAAGCCGGATAACATGCAGTAGTAGAACAAAC [TGCATGCA_site413],7.42
7,TTTATTTATGTTGAAACATGCAAAAAGTTATTTATA [TGCATGCA_site716],6.48
8,ACTCCATAATATTGATGTACTATAATGCATTTATTT [XGTACX_site5562],7.19
9,TTATAGAATTTATTTACACACAAACATTTATACTTT [CACACA_site7592],6.49
10,TATTTATTTTCATATAGTACTTTTTTCAGGCATATA [XGTACX_site6691],6.37
11,ATATGAACATTTACATGTACATGTAAATGTAACACT [XGTACX_site4574],6.33
12,GAAAATATGTAATAGTGTACACATATATATGTATAT [XGTACX_site306],6.73
13,TGCTCATTCCTGTCATGTACATATTATATATATATA [XGTACX_site6890],8.68
14,CACAAAAAGAAACACACACACATATATATATATATA [CACACA_site999],9.35
15,ATTCTAAATAATAAGAGTACAAATAATATGGAGAAG [XGTACX_site5209],7.15
16,TGTACAAATATGTACACACACACATATTTATTTATA [CACACA_site6419],6.78
17,TATGTATAAAAATAATGTACAAAATATATTATATGT [XGTACX_site2794],6.46
18,ATACTATAATAATACACACTCATTAGATATATAAAG [CACACA_site7787],6.82
